Out of some 310,000 compounds screened, about 2,200 (0.71%) showed an effect of 50% or more. The effect is printed as a negative number. This is one part of the list.
Biological target: human ether-à-go-go-related gene (hERG) potassium channel (human, UniProt Q12809)
Assay: primary screen, population patch clamp on CHO cells stably expressing hERG

human ether-à-go-go-related gene (hERG) potassium channel, sequence (Q12809 whole entry, looked up): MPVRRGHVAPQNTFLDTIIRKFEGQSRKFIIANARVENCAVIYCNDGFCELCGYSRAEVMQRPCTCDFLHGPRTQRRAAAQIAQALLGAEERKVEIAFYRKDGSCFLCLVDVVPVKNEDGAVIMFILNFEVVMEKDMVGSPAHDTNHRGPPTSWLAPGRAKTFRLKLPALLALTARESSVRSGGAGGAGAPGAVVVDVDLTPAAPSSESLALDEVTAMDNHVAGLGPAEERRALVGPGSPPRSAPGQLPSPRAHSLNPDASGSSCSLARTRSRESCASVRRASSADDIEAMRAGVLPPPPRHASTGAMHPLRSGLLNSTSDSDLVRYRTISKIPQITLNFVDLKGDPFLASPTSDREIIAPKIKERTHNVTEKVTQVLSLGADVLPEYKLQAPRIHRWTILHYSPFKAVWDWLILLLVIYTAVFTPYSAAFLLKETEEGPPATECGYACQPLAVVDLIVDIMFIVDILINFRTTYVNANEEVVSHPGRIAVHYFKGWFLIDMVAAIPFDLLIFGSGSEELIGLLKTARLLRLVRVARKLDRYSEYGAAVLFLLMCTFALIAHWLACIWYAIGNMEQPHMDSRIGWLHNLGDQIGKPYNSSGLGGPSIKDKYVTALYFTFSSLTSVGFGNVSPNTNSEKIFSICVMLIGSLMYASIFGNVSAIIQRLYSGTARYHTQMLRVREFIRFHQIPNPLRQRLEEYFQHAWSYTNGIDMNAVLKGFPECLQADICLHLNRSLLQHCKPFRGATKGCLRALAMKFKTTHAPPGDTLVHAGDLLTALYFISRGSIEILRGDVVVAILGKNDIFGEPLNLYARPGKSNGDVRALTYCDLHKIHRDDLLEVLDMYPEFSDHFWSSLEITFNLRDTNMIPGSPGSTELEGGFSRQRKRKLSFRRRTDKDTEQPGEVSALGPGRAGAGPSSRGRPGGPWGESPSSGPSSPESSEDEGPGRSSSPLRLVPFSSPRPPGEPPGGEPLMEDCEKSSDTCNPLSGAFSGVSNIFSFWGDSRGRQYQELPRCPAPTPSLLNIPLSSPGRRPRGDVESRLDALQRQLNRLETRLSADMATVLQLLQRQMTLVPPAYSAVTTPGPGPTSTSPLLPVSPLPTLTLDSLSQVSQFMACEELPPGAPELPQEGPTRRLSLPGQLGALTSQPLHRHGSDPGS

Structure (SMILES)	hERG current change (%, negative = inhibition) at 1uM [%]
O=C(Cn1c(=O)c2cccn2c2ccc(F)cc21)NCCCN1CCN(c2ccccc2F)CC1	-14.8
Cc1cc(C)n(CCNCc2c(C(=O)N3C[C@@H](C)O[C@@H](C)C3)nc3ccc(Cl)cn23)n1	15
CCOC(=O)Cc1csc(NC(=O)CCCN2C(=O)c3ccccc3C2=O)n1	11.8
O=C(Cn1nc(-c2ccc(Cl)cc2)ccc1=O)NCCCN1CCN(Cc2ccccc2)CC1	-15.9
O=C(c1cccnc1)N1CCC(Oc2ccc(C(=O)N3CCCCO3)cc2)CC1	6.32
NC(=O)COc1ccc(NC(=O)OCc2ccccc2)cc1	3.93
CC(=O)c1ccc(C(=O)N2CCCC(Nc3ccc(C(C)C)cc3)C2)s1 (stereo not shown)	15.3
CCOC(=O)N1CCN(C(=O)C(=O)Nc2ccc3nc4n(c(=O)c3c2)CCCCC4)CC1	7.89
CCOC(=O)c1c(C)c(C(=O)NCc2cccs2)c(C)n1CC	-0.627
CC(C)Cn1c(-c2ccc(F)cc2)n[nH]c1=S	11.6
COc1ccccc1CN1CCN(Cc2ccco2)CC1.O=C(O)C(=O)O	-0.696
O=C(c1cnn2c(C(F)F)cc(-c3ccccc3)nc12)N1CCOCC1	-0.431
CCC(C)Sc1nnc(NC(=O)c2ccco2)s1 (stereo not shown)	11.4
C=CCc1cccc2cc(C(=O)N3CCN(c4ccccn4)CC3)c(=O)oc12	-7.02
COC(=O)c1ccncc1N	12.4
CCOC(=O)CSc1nc(=O)n2ccc(C)cc2n1	18.9
O=C(Cn1c(=O)oc2ccccc21)Nc1ccc(Cl)cc1	14.3
CCCc1[nH]nc2c1C(/C(C)=C/c1ccccc1)C(C#N)=C(N)O2 (stereo not shown)	6.11
C/C(N)=C(/C#N)C(=O)COC(=O)C1Cc2ccccc2CN1S(C)(=O)=O (stereo not shown)	15.8
CCOc1cc(/C=N/NC(=O)CN2CCOCC2)ccc1OCc1ccc(Cl)cc1	5.07
COc1ccc(CNC(=O)CCCn2nc(C)n3ccnc3c2=O)cc1	10.2
COC(=O)C1=C(c2cccc(OC)c2OC)C[C@@H]2CC[C@H]1N2C	-1.48
O=C(CCSc1nc(-c2ccco2)cc(C(F)(F)F)n1)Nc1ccc2c(c1)OCO2	8.51
COCCNC(=O)Nc1ccc(F)cc1	16.7
CC(=O)Nc1ccc2nc(CN3CCN(CC(C)C)C(CCO)C3)ccc2c1 (stereo not shown)	5.3
